The test system of experiment [1] is transgenic UM tumors driven by Gαq(Q209L). The experiment can be described thus: Transgenic mouse model of UM, intravitreal injection, RNA-Seq of tumors. It is filed as in vivo. To be noted: intravitreal FR, expected result of planned experiment. From the text: Next we will determine whether FR targets primary ocular tumors in a transgenic mouse model of UM. […] This model has key advantages over transplant models. First, it is highly penetrant and reproducible. Occular tumors occur in 100% of mice within 4 weeks of age. Second, hematogenous dissemination of tumor cells to the lung occurs in >90% of mice by 3 months of age, making this transgenic model well suited for determining whether FR inhibits metastatic dissemination or growth. […] In contrast, tumor xenografts develop intravitreally are inappropriate for indicating how tumors arising within the uveal tract might respond to FR.
Transgenic uveal melanoma tumors will be imaged non-invasively, by spectral-domain optical coherence tomography (SD-OCT) and angiography. These techniques enable ocular tumor volume and blood supply recruitment to be followed over time. Baseline images will be acquired in 4-week old mice when tumors are small but evident. […] Inhibition of tumor growth as a function of FR concentration will be determined. Tumors will be harvested and analyzed by immunoblotting or immunohistochemistry for the activity state of signaling pathways downstream of constitutively active Gαq/11 in UM (YAP; MEK), to determine dose of FR is sufficient to inhibit constitutively active Gαq signaling in tumors. […]

The subject of experiment [2] is Gαq(Q209L)-driven Mel202 cells. Briefly: IP1 accumulation in UM cells (IP-One kit). The experiment is classed as cell-based, Human. To be noted: FIG. 3B. From the text: (§1) Inhibition of signaling by constitutively active Gαq in UM cultured cell lines was quantified by measuring intracellular inositol 1-phosphate (IP1), a metabolically stable product of inositol 1,4,5-trisphosphate produced by Gαq-stimulated phospholipase Cβ. FIG. 3A Basal IP1 levels in UM cell lines driven by constitutively active Gαq (92.1 and Mel202) and BRAF (OCM-1A). FIG. 3B Effects of FR on IP1 levels in 92.1, Mel202 and OCM-1A cells. *p<0.01.
(§2) A third UM cell line (OCM-1A) driven by constitutively active BRAF(V600E) served as a negative control. Signaling by Gαq-stimulated phospholipase Cβ was quantified based on levels of inositol monophosphate (IP1), a metabolically stable product of inositol 1,4,5-trisphosphate (IP3) produced by cleavage of phosphatidylinositol 4,5-bisphosphate (PIP2). […] FR reduced IP1 levels in Mel202 and 92.1 cells >50-fold (FIG. 3B), but had only modest effect (˜2-fold) on OCM-1A cells (FIG. 3B).
(§3) Accumulation of IP1 in UM cells was measured using the IP-One kit (CiSbio, Inc; catalog number 62IPAPEB) according to the supplier's instructions. 10,000 Mel 202 cells, 20,000 92.1 cells and 20,000 OCM 1A cells were seeded into white-bottom tissue culture grade 384-well plates. Following an overnight incubation, cells were treated with FR or DMSO and returned to the incubator. […] Plates were read in a Synergy H4 Hybred Reader (BioTek, Winooski, Vt., USA). […]

Experiment [3] concerns Gαq(Q209L)-driven 92.1 cells. Briefly: IP1 accumulation in UM cells (IP-One kit). It is filed as cell-based, Human. Conditions: FIG. 3B.
From the text: as §1, §2, §3

Experiment [4] addresses T1, constitutively active Gαq and RGS2 (Homo sapiens, UniProt P50148, Q209L).
T1 construct: expressed in transfected cells; host or cells: HEK-293
Briefly: Split luciferase complementation, Gα interaction with RGS2. It is filed as cell-based. To be noted: HEK-293 cells, FIG. 1C. From the text:
(§4) (FIG. 1A-1C) depicts the effect of FR on the activity state of Gα subunits as determined by interaction with Gβγ or RGS domains in split luciferase complementation assays. FIG. 1A Effect of FR on interaction of Gβγ2 with the indicated wild type (WT) or mutant constitutively active (Q/L) forms of Gα (q) or Gα13 (13). * p<0.01; ** p<0.05. FIG. 1B Potency of FR as a driver of interaction of Gβγ2 with wild type or mutant constitutively active Gαq. FIG. 1C Potency of FR as inhibitor of interaction of RGS2 with mutant constitutively active (Q/L) Gαq, or interaction of the RGS domain of LARG (LARG-RGS) with mutant constitutively active Gα13. FIG. 1D Potency of FR as inhibitor of signal transduction by constitutively active Gαq or Gα13 detected with an SRE(L) promoter-driven transcriptional reporter. Constitutively active Gαq (Q/L), constitutively active Gαq bearing the indicated FR binding site mutations, and constitutively Gα13 (Q/L) were studied.
(§5) To detect protein-protein interactions, a split luciferase complementation assays was used (23), as employed to study activation state-dependent interaction between Gα subunits and cognate binding partners (24).
(§6) Split luciferase assays were performed as described (24). […]

The target of experiment [5] is T2, constitutively active Gαq(Q209L) interacting with Gβγ2 (Homo sapiens, UniProt P50148, Q209L).
T2 construct: expressed in transfected cells; host or cells: HEK-293
T2 sequence (P62873 whole entry): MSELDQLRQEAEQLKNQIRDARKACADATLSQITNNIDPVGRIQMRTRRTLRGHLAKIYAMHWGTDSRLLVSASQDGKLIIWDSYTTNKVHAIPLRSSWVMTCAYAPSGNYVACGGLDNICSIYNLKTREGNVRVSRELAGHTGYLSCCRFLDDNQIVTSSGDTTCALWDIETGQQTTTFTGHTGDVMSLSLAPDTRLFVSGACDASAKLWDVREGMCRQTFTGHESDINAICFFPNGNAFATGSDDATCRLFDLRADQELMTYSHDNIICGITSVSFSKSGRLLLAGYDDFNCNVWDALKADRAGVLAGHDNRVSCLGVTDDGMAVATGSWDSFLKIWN
T2 sequence (P50148 whole entry Q209L): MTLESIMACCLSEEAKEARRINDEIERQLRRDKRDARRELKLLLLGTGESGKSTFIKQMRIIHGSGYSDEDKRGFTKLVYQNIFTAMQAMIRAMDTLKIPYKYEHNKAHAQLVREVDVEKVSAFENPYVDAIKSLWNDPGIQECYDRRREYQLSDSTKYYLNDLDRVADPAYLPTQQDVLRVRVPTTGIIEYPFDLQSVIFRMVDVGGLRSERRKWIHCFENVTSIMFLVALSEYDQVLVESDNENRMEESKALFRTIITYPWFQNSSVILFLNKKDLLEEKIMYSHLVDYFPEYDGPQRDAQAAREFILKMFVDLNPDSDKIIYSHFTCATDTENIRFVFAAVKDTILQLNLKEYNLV
T2 sequence (P59768 2-68, further chain): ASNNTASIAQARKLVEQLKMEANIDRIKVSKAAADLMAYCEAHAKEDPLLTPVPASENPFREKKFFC
The experiment can be described thus: Split luciferase complementation, Gα interaction with Gβγ2. The experiment is classed as cell-based. Conditions: HEK-293 cells, 18 h, FIG. 1B, read-out: EC50, increase of split luciferase complementation.
From the text: as §4, §5, §6

Starred links: 1 amine or outer side, 2 acyl side, 3 side chain; linkers in the order of their positions; H or OH if unused. Positions of bridges follow the written chain, without caps; N, C: chain ends. Non-standard residues stand in square brackets, D forms with d. Residues, ends and D or L forms follow the SMILES beside them. *: point of attachment. Leu(3R-OH,Nα-propionyl) = CCC(=O)N[C@H](C(=O)*)[C@H](O)C(C)C; X1 = CC(C)[C@@H](O[*:3])[C@H](N[*:1])C(=O)[*:2]; X2 = CC(C)[C@H](O[*:3])[C@@H](N[*:1])C(=O)[*:2]; NMeaThr = CN[C@H](C(=O)O)[C@H](C)O; dPhLac = O=C(O)[C@H](O)Cc1ccccc1; NMeA = CN[C@@H](C)C(=O)O; NMeDha = C=C(NC)C(=O)O

T1 sequence (P50148 whole entry Q209L): as the sequence (P50148 whole entry Q209L) above

What is called EC50 is the concentration that produces a half-maximal response. Consider `C=C1C(=O)N[C@@H](C)C(=O)N(C)[C@@H](C)C(=O)N[C@H]([C@@H](OC(=O)[C@@H](NC(=O)CC)[C@H](O)C(C)C)C(C)C)C(=O)N(C)[C@@H]([C@H](C)OC)C(=O)O[C@H](C(C)C)[C@H](NC(C)=O)C(=O)O[C@H](Cc2ccccc2)C(=O)N1C` [FR, [(1S)-1-[(3S,6R,9S,12S,18R,21S,22R)-21-acetamido-18-benzyl-3-[(1S)-1-methoxyethyl]-4,9,10,12,16-pentamethyl-15-methylidene-2,5,8,11,14,17,20-heptaoxo-22-propan-2-yl-1,19-dioxa-4,7,10,13,16-pentazacyclodocos-6-yl]-2-methylpropyl] (2S,3R)-3-hydroxy-4-methyl-2-(propanoylamino)pentanoate] (Ac-[X1][dPhLac][NMeDha]A[NMeA][X2](Leu(3R-OH,Nα-propionyl))[NMeaThr](Me); ester 1-C), for which, in experiment [1], the “silencing of PRC2-regulated genes in transgenic UM tumors” value was “will reinstate silencing of PRC2-regulated genes”. Further, the “reduction of IP1 levels” value in experiment [2] and in experiment [3] was above 50 fold throughout. The “IC50, inhibition of interaction with RGS2” value in experiment [4] was found to be 0.4 nM. Moreover, the EC50 in experiment [5] turned out to be 9 nM.

The values are drawn from patent publication US20230130103A1, “TARGETED PHARMACOLOGICAL THERAPEUTICS IN UVEAL MELANOMA” (Washington University, priority 2017, published 2023).
